# Experimental data taken from paper PMC4242493.
# This is one part of the list. The list includes weakly bound sequences.
# Target: MaxL homodimer (UniProt P61244)
# Test: universal protein-binding microarray (PBM)
# Conditions: PBS-based mixture, 10 nM His-tagged protein dimer, 2% milk, 200 ng/uL BSA, 50 ng/uL salmon testes DNA, 0.02% TX-100; detection with Alexa 488 anti-His …; high values mean tight binding; most listed sequences are background and not binding sites; double strand, one strand shown
# UniProt P61244, sequence (P61244 whole entry): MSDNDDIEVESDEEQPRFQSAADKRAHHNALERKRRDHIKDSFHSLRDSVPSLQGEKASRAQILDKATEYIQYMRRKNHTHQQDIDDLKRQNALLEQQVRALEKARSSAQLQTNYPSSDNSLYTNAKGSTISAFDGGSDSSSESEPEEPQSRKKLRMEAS
row,Sequence,binding signal (normalized occupancy)
1,CCAACCAA,0.0742
2,CCCCATGA,0.0895
3,AGCGGCGA,0.0673
4,TGCGTACA,0.0865
5,CCCCGTAA,0.0775
6,GTTGGTAA,0.0789
7,GACGCTCA,0.0731
8,AAGCTTAT,0.0711
9,CGTAAAAG,0.0724
10,CGGATGAC,0.0761
11,AAAAAGAG,0.0707
12,TCGGCGAA,0.0713
13,ATTTGCGA,0.0774
14,CCACTCGG,0.0691
15,CAAGGATA,0.076
16,CGGTTTAG,0.0694
17,CTTAGTAA,0.0712
18,GGAAGTCA,0.0734
19,CTCGTGCC,0.0909
20,AGAATCTA,0.0779
21,CGGTACGC,0.0666
22,GATATACA,0.0827
23,GAGGATTA,0.0775
24,AGGTGCAG,0.0801
25,AACTTCCA,0.0677

row,Sequence,binding signal (normalized occupancy)
1,CAAGCGTG,0.104
2,ATGAGTGG,0.079
3,CGTGTAAC,0.0871
4,CGGCTTTA,0.0697
5,GAATGTGA,0.0817
6,ACGCGGCG,0.082
7,ATCGGTGC,0.0757
8,CGGAAAGA,0.0742
9,GTCGAAAC,0.0714
10,AGGGAGGA,0.0742
11,AATCTGTA,0.0795
12,CTGTTGCC,0.068
13,TAAGCGGA,0.0688
14,CCTCCCAA,0.0795
15,ATATCCAG,0.078
16,GGAAAACA,0.0754
17,AAGCTTTA,0.0725
18,ATTCTGTC,0.0792
19,AAGGGGAT,0.0775
20,ACTGAACC,0.0727
21,CAAGTGCG,0.073
22,CTTGCTGC,0.0689
23,CTTAAGAA,0.0729
24,AGAGATAT,0.083
25,CACAGTAG,0.0759

row,Sequence,binding signal (normalized occupancy)
1,AGGTCAGG,0.0741
2,CGTCCGGA,0.0722
3,GAAGCTGA,0.0667
4,AACGATCA,0.0757
5,AACTGTGT,0.0728
6,AATCGCCC,0.0731
7,AGAGGGTA,0.0784
8,GCAGTACC,0.0752
9,GCGGAACA,0.0734
10,CGTCGAAC,0.0719
11,ATCGTCAT,0.08
12,CACGAGGA,0.137
13,TAATGGTA,0.0765
14,GCACTAAC,0.0688
15,CGCTTACG,0.072
16,AGTAGGAA,0.0707
17,TAACAGAA,0.0762
18,AGTTGTCC,0.0735
19,CTCCTCAC,0.0758
20,GCGTCAAC,0.0752
21,GGTGTTGA,0.082
22,CGCCAGCG,0.0648
23,GTGCGCGA,0.0808
24,ATGGTAGA,0.0801
25,ACGCATCG,0.0806

row,Sequence,binding signal (normalized occupancy)
1,ACTATTAT,0.0787
2,GACATTTA,0.0853
3,ATATGGAG,0.0902
4,GTGGGAAA,0.0821
5,CAGTAAGA,0.074
6,CCCGAGTC,0.0738
7,ACATTTAT,0.0867
8,ATATCCGA,0.0821
9,CTTAAGGC,0.0688
10,AAACAAAG,0.0763
11,ATAACCTG,0.0814
12,GTGAGCAC,0.0807
13,CGCCATAC,0.0884
14,AGACCGAG,0.068
15,CGTACGTC,0.0762
16,ATGCTGAA,0.0799
17,GACTGCTA,0.0712
18,CAGTGGAA,0.0706
19,GAAGCACA,0.0773
20,CAGCATAG,0.0739
21,GGAGATAC,0.0701
22,CGGGACAG,0.0676
23,ATGTTTGG,0.0806
24,TGCGAACA,0.0776
25,GGCTTGTA,0.0849

row,Sequence,binding signal (normalized occupancy)
1,AGTGCGCA,0.076
2,AGCCGTTC,0.066
3,AAGCCACA,0.0844
4,CATAATGG,0.0823
5,AACAGTCT,0.0721
6,GCCTATTA,0.0793
7,GGGTGGAA,0.0852
8,AGCGTCGC,0.0721
9,AGAGAGTA,0.0748
10,ACGACTGG,0.0674
11,CCACCCAA,0.0803
12,AAATTTCT,0.0704
13,CCCTTTAG,0.0687
14,CGCGCGGA,0.0836
15,AAAGGAAA,0.0777
16,AGGTACGA,0.0738
17,CATAATCC,0.0816
18,ATACCCAG,0.0752
19,ACGGCACG,0.0814
20,ACATGCAT,0.105
21,ACGGCAAC,0.0772
22,ATCCCCAA,0.0794
23,CCTTCGAC,0.0701
24,ACAGAAGG,0.0726
25,ATAATCAG,0.0771

row,Sequence,binding signal (normalized occupancy)
1,ACTTAGTC,0.0745
2,CGAACTCG,0.073
3,ATACATAT,0.0896
4,AGTGGCGC,0.0706
5,AGGTGGTG,0.0873
6,AACTATAG,0.0779
7,GTGGCCAA,0.076
8,CAGATTAA,0.0745
9,AACCACCG,0.0742
10,CTGAAGGC,0.0663
11,CCTGAACG,0.0747
12,TATGGGCA,0.0802
13,CGGGAGGC,0.0684
14,TAAGGGAA,0.0759
15,CTAGTGTC,0.0704
16,TAGCTGAA,0.0722
17,ACGACGTG,0.0963
18,CAGATCTA,0.0775
19,ACTGACAA,0.0748
20,CAAGATAC,0.0771
21,GTCGGTTA,0.0702
22,GATTGTGA,0.0758
23,AGCAGGAG,0.0736
24,ATCGACCG,0.0683
25,ATATCCTC,0.0839

row,Sequence,binding signal (normalized occupancy)
1,GTGGCAAC,0.0755
2,ACTAACCG,0.0725
3,ACGTGTAG,0.103
4,GGCTAAAA,0.0665
5,AGTGCTAG,0.0731
6,GCAACCTA,0.078
7,TATGGAGA,0.0866
8,AAGAAGTA,0.0727
9,ATTGCCAC,0.0774
10,CGAACCCC,0.077
11,ATCAAGGA,0.0765
12,AGCGGCAA,0.0701
13,CACCATTC,0.0799
14,GTAAAATA,0.0792
15,TCAATCGA,0.0766
16,GAGACAAA,0.0718
17,GAAGTCCA,0.0692
18,AGAAGCAG,0.0737
19,AAAAGCAG,0.0682
20,ACGACACC,0.0753
21,ATAGTATA,0.0859
22,AGTGAGCA,0.0794
23,GTTGAGGA,0.0716
24,AACTGCCT,0.0759
25,AGGACGTC,0.0754

row,Sequence,binding signal (normalized occupancy)
1,CAGCGGAG,0.0713
2,AAATCTCC,0.0696
3,CCCTTTAC,0.077
4,TCAAGCAA,0.0732
5,CAAATCAG,0.083
6,ATACGTTA,0.0826
7,AAGTGCGA,0.0687
8,GAACATTA,0.0812
9,GATCAATC,0.0738
10,ATTGGAGA,0.0755
11,CCTCATGA,0.0951
12,ACACGAGG,0.144
13,ATCGCGGA,0.0705
14,ATTGCCAA,0.0765
15,GTGGCCTA,0.0811
16,CATGTGCA,0.149
17,CAGAAATA,0.0807
18,ATAAGCCA,0.0765
19,GGTTTGAA,0.0749
20,AGTTACAG,0.0738
21,TCACTGAA,0.073
22,GGAGCCCA,0.0741
23,AGCGTTCG,0.0661
24,AGCCTCGA,0.073
25,TCGGATCA,0.075

row,Sequence,binding signal (normalized occupancy)
1,GAATCTAC,0.0778
2,ATTTAAGC,0.0765
3,GCACATAA,0.0796
4,CAAATCCG,0.0718
5,CGCGTCCG,0.0754
6,CATCACAC,0.0905
7,TATCCCGA,0.0764
8,ACAAGGAA,0.0781
9,ACCCTCAG,0.0731
10,CTGCAAAC,0.0766
11,GAAGGGAA,0.0698
12,AGTTCAGA,0.0703
13,ACGTAGCT,0.0767
14,CGAGGGAG,0.0757
15,GAGCAACC,0.07
16,AGTGAACG,0.0728
17,CGGTTTCC,0.0712
18,ACGCACGG,0.0828
19,TACATTGA,0.0774
20,CGGCTAGA,0.0678
21,AAGGGATG,0.0764
22,CGTAAGAG,0.0734
23,AACATATG,0.1
24,CGCGAGCA,0.0818
25,CGGTGTCA,0.0786

row,Sequence,binding signal (normalized occupancy)
1,CCTTATCG,0.0766
2,GGGCCATA,0.074
3,CTCAGGAG,0.0722
4,AAATCTGG,0.0714
5,TGCAGCAA,0.0766
6,GCGCAGCC,0.0617
7,CTCTAGGC,0.0692
8,CGCAGCCG,0.071
9,AGAACAGG,0.0731
10,CTCCTGGA,0.0735
11,ACTGGATC,0.0721
12,ATCCACTA,0.0778
13,AGTGGATA,0.0812
14,CCATATAC,0.0895
15,AATTTGTA,0.0777
16,CAGTCGAG,0.0685
17,ACGTATCA,0.0795
18,CATCGGTA,0.0736
19,GAACTCGC,0.0767
20,GCGTTCAC,0.0758
21,AGTTCTCC,0.074
22,GCGTGAAC,0.0873
23,GGTTAGCA,0.0754
24,ACAAATGT,0.079
25,AAATCGGC,0.0666

row,Sequence,binding signal (normalized occupancy)
1,AGCGGTAT,0.0792
2,ATTGAAAT,0.0772
3,ACAAAATA,0.0817
4,CACCACGA,0.082
5,CTCCCCCA,0.0787
6,GCGTAAGC,0.0709
7,GGGCTAGA,0.0765
8,CAGGATAC,0.0735
9,GCGTATTA,0.0746
10,CAATCTCC,0.0739
11,CATGAAAA,0.081
12,CCCTTGGC,0.0696
13,AAACTTAT,0.0789
14,AAGACCAG,0.0728
15,GCCGACAC,0.0731
16,ACGACCTG,0.0764
17,ACGAGTCG,0.0795
18,ATCGACGA,0.0701
19,TATGCGCA,0.0804
20,CACCTGAC,0.0973
21,ACAACTTC,0.0755
22,CCAACCCA,0.0759
23,CGTTGCGA,0.0768
24,CTATTCAG,0.0714
25,AGTGAAGC,0.0734

row,Sequence,binding signal (normalized occupancy)
1,AACAATAC,0.076
2,GCAGACCC,0.0687
3,AAGTCGAT,0.0737
4,GCAGTGTA,0.0735
5,AGCTCCGA,0.0643
6,GTCACGTA,0.0838
7,CGTGAGAG,0.0931
8,ATCCTATC,0.0821
9,TTGAAAAA,0.0753
10,GCTTCGGA,0.0717
11,AGAATAAA,0.0773
12,CAGATCTC,0.0805
13,CAAGGCAA,0.075
14,GAACGCCA,0.0739
15,GATTGGAC,0.0752
16,GAAATAAC,0.0798
17,CTACCGAC,0.0727
18,GAACGTCA,0.0757
19,ACACAGGC,0.0789
20,GGTTTCAC,0.0735
21,ACAGGCTC,0.0724
22,ACGCAAGG,0.081
23,AACCAAGT,0.0721
24,ACAGTACT,0.0757
25,AGCGGCCA,0.067

row,Sequence,binding signal (normalized occupancy)
1,AGGGTAAT,0.0774
2,ATCTGCCA,0.0792
3,ACGTCACG,0.0919
4,ACTTCAGG,0.0725
5,CCTTAAAG,0.0719
6,CCCCCACG,0.0958
7,ACAGGCGA,0.0709
8,GTTGCTTA,0.0771
9,CATCTTGC,0.0754
10,ATTTACTG,0.0772
11,GAGCTGTA,0.0768
12,ACATATAC,0.0883
13,ATGAGATC,0.0897
14,CTGAATCC,0.0737
15,ATCAGGAC,0.0791
16,CAATTCGA,0.0737
17,CCCGCTTA,0.0716
18,ATGTTGAG,0.0802
19,AACAGACA,0.0753
20,AACGTCTG,0.0724
21,ATTGTTCG,0.0724
22,AGAATGGC,0.0756
23,AAATGGCA,0.0805
24,TACTTGCA,0.0788
25,ATGGTTGC,0.0766

row,Sequence,binding signal (normalized occupancy)
1,GGCATTAC,0.0758
2,GCTGAATA,0.0764
3,AACTCAAT,0.0754
4,CAAGTAAA,0.0734
5,GAGAATGA,0.0781
6,ACCAGAGA,0.0756
7,AAGTTGTC,0.0753
8,AACCAATG,0.0758
9,GACCGGTC,0.0725
10,CATACACG,0.097
11,GACTAGTC,0.0674
12,TCAATTGA,0.0775
13,GAACTTAC,0.0729
14,AAGGCCCA,0.0733
15,AGCCCGAT,0.0746
16,CCCGAGCA,0.0798
17,GACAAGAC,0.0699
18,ACAAACTA,0.0728
19,AAGGAGTC,0.0727
